# Laboratory results reported in paper PMC4336329 (PLoS ONE, 2015).
# Screen size: about 310,000 compounds; about 14,000 (4.5%) showed an effect of 50% or more. The effect is printed as a negative number. The list shows a part of the results.
# Target: human ether-à-go-go-related gene (hERG) potassium channel (human, UniProt Q12809)
# Experiment: primary screen, population patch clamp on CHO cells stably expressing hERG
# 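Note: peak tail current of the secondary pulse compared with the same well before compound.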
# Sequence of human ether-à-go-go-related gene (hERG) potassium channel (Q12809 whole entry, looked up): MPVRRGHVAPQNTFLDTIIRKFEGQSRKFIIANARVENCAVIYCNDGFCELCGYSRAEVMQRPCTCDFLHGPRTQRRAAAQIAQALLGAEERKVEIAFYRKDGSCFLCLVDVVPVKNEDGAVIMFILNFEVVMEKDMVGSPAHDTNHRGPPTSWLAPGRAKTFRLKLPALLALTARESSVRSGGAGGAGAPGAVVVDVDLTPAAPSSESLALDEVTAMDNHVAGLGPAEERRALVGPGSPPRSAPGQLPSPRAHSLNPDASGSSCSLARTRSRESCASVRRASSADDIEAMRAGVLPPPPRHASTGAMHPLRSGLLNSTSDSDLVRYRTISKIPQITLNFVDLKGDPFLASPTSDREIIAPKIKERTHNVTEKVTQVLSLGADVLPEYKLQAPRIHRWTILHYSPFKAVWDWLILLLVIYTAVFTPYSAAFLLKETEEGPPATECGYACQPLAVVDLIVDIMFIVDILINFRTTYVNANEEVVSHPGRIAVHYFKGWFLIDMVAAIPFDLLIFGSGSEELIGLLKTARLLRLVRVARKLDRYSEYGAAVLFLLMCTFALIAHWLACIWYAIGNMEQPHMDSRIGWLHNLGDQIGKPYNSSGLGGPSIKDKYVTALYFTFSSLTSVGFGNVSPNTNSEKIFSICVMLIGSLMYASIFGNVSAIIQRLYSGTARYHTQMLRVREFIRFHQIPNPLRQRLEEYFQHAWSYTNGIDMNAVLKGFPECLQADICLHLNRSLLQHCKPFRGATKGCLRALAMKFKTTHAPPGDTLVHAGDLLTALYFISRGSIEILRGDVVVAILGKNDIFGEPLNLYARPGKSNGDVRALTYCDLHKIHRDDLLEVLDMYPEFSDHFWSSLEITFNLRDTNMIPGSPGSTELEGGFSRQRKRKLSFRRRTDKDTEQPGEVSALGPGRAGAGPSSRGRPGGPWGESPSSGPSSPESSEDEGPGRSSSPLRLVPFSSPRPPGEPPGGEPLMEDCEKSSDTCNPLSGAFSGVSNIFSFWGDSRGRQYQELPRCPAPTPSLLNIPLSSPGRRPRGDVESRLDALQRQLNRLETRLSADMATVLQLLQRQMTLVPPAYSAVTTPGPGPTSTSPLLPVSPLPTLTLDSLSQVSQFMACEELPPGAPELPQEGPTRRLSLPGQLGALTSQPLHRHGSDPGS
row,SMILES,"hERG current change (%, negative = inhibition) at 10uM [%]"
1,CC(C)Sc1nc2c(c(=O)[nH]c(=O)n2C)n1C,-1.58
2,Cc1ccc(C)c(/C=C/C(=O)c2ccccc(=O)c2O)c1,-50.7
3,Brc1cc2c(cc1COc1ccc(-c3nn[nH]n3)cc1)OCO2,11.2
4,CCOc1ccccc1C(=O)OCC(=O)NCCc1ccc(OC)cc1,-43.1
5,Cc1ccc(NC(=O)COc2ccc(C3SCCS3)cc2)cc1,5.06
6,CC(Sc1nc2scc(-c3ccccc3)c2c(=O)[nH]1)C(=O)NC(N)=O (stereo not drawn),2.33
7,CCOC(=O)c1[nH]c2ccc(OC)cc2c1NC(=O)CCN1CCC(C)CC1,-22.8
8,CN(C)S(=O)(=O)c1ccc(C(=O)Nc2cc(=O)n(C)c(=O)n2C)cc1,23.9
9,Cc1ccc(/C=C/C(=O)NN2CCN(C)CC2)cc1,10.3
10,CCOC(=O)C1CCN(S(=O)(=O)c2ccc(NC(=O)OC)cc2)CC1,-56.5
11,CCCC1C(=O)Nc2ccccc2N1C(=O)c1cccc(C)c1 (stereo not drawn),2.13
12,COc1ccc(N2CCN(C(=O)Cc3coc4cc(C)ccc34)CC2)cc1,9.02
13,CC1=C(C(=O)OC(C)C)C(C)NC(=O)N1 (stereo not drawn),-24
14,C=C(C)C1CC=C(C)/C(=N/NC(=O)COc2ccc(Cl)cc2)C1 (stereo not drawn),13
15,CCOc1ccc2ccccc2c1/C=N/NC(=O)CNC(=O)c1ccccc1F,6.21
16,O=C(O)c1ccccc1C(=O)c1ccc(N2CCOCC2)c([N+](=O)[O-])c1,8.12
17,O=C1COc2ccc(-c3csc(NCCc4ccccc4)n3)cc2N1,0.389
18,COc1cc(C(=S)N2CCCC2)cc(OC)c1OS(=O)(=O)c1ccc(NC(C)=O)cc1,3.19
19,Cn1c(-c2ccccc2)cnc1NCc1ccccc1,-21.3
20,COc1ccc(C(=O)Nc2ccc3nc(C)c(C)nc3c2)cc1,2.32
21,CN(CC(=O)N1CCCCCC1)S(=O)(=O)c1ccc(F)cc1,7.32
22,Cc1ccc(C(=O)C(OC(=O)COc2ccccc2C)c2ccccc2)cc1 (stereo not drawn),-0.792
23,O=C(NNC(=S)Nc1ccccc1)c1cccnc1,15.9

row,SMILES,"hERG current change (%, negative = inhibition) at 10uM [%]"
1,O=C(Nc1nnc(C2CCCCC2)s1)c1cccs1,17.9
2,O=C1C2C(c3ccccc3)C=CC(c3ccccc3)C2C(=O)N1CCCO (stereo not drawn),-7.56
3,Cc1ccc(NC(=O)COC(=O)C2CC2)cc1Cl,2.83
4,CCOc1ccc(CNC(=O)C2CCN(c3nn4c(=O)cc(C)nc4s3)CC2)cc1,-45.8
5,COc1ccc(N/C(N)=N/c2nc(CSc3ccc(Cl)cc3)cc(=O)[nH]2)cc1,17.5
6,CCOC(=O)c1[nH]c(C)c(C(=O)N2CCN(c3cccc(Cl)c3)CC2)c1C,-13.8
7,Cc1ccc(-c2nnn(CC(=O)N(CC(=O)NC3CCCCC3)c3cnc4ccccc4c3)n2)o1,-25.5
8,COc1ccc(S(=O)(=O)Nc2ccc(C(F)(F)F)cc2)cc1OC,-12.4
9,Cl.O=S(=O)(c1ccc2ccccc2c1)N1CCN(CCO)CC1,23.5
10,c1ccc(Cn2nnnc2C(c2ccccn2)N2CCOCC2)cc1 (stereo not drawn),13.6
11,CSCC[C@H](NC(=O)OC(C)(C)C)C(=O)N/N=C/c1cccc2cccnc12,-28
12,CC1CCCCC1NC(=O)CCNS(=O)(=O)c1cc(Br)cnc1N (stereo not drawn),7.41
13,Cl.c1ccc(-n2ncc3c(NCCN4CCCCC4)ncnc32)cc1,-15.7
14,Cc1cc(CNCc2c(C(=O)N3CCCCCCC3)nc3ccc(Cl)cn23)nn1C,-18.7
15,COc1ccccc1OCc1ccc(C(=O)N2CCN3CCCC3C2)cc1 (stereo not drawn),-9.75
16,CCSc1nnc(NC(=O)CSC2=NCCS2)s1,12.4
17,Cn1c(O)c(/C=C2\C=Nc3ccc(Br)cc32)c(=O)n(C)c1=O,-5.57
18,COc1ccc(N2C(=O)C3CCCN3C2c2ccc(C)o2)cc1 (stereo not drawn),0.588
19,CC(C)(C)OC(=O)NCCCC[C@H](NC(=O)c1[nH]cnc1C(=O)Nc1ccc(Cl)cc1)C(=O)OC(C)(C)C,22.1
20,O=C1CCCN1c1ccc(C(=O)N(Cc2nnc(-c3ccccc3Cl)o2)C2CC2)cc1,-6.33
21,CC(=O)c1ccccc1NC(=O)Cn1c(=O)cnc2ccccc21,14.6
22,CCOC(=O)c1c(NS(=O)(=O)c2cccc(OC)c2)sc2c1CCC2,-11.5
23,COc1cccc(CN2CCC(Oc3ccc(C(=O)N4CCCCC4)cc3)CC2)c1,-25.3

row,SMILES,"hERG current change (%, negative = inhibition) at 10uM [%]"
1,O=C(Nc1nnc(-c2ccccc2F)s1)C1CCN(S(=O)(=O)c2ccc(Cl)cc2)CC1,13.7
2,CCN(CC)S(=O)(=O)c1cc(NC(=O)COC(=O)CCC(=O)c2cccs2)ccc1C,-12.1
3,O=C(CN1CCCCC1)c1c[nH]c2ccccc12,-0.455
4,COc1ccccc1NC(=S)N(Cc1ccco1)Cc1cc2ccc(C)c(C)c2[nH]c1=O,-8.05
5,CCCCSc1nnc2c(n1)[nH]c1ccccc12,-3.38
6,O=C(c1ccc(F)cc1)N(C(=O)c1ccc(F)cc1)c1ncccn1,-6.74
7,CN(CCO)C(=O)C(c1ccccc1)c1ccccc1,7.97
8,O=C(O)c1ccc(/C=C2\SC(=S)N(NC(=O)c3ccccc3)C2=O)cc1,10.4
9,Cn1nccc1C(=O)Nc1ccc(Cl)cc1,5.9
10,Cc1ccc2nc(-c3ccncc3)c(Nc3ccccc3)n2c1,0.405
11,COCc1nc2sc3c(c2c(=O)[nH]1)CCCC3,12.9
12,O/N=C/Cc1[nH]c2ccccc2c1-c1ccccc1,2.59
13,CCc1ccccc1NC(=O)CN1CCN(CC(=O)Nc2ccc(-c3ccccc3)cc2)CC1,-53.3
14,COc1ccccc1CN=c1c([N+](=O)[O-])nn(-c2ccc3c(c2)OCCO3)n1O,-7.21
15,COc1ccc(NS(=O)(=O)c2cc(NC(=O)c3cnccn3)ccc2N2CCCC2)cc1,0.988
16,CCOC(=O)c1sc(-c2ccc(C(F)(F)F)cc2)nc1O,12.8
17,N#CCc1nn(-c2ccccc2)c(N)c1C#N,5.46
18,NS(=O)(=O)c1ccc(CCNC(=O)CN2C(=O)COc3ccc(S(=O)(=O)N4CCCC4)cc32)cc1,10
19,COc1ccc(-c2nc3c4ccccc4ccn3c2C=O)cc1,19.6
20,Cc1cccn2c(=O)c3cc(C(=O)N4CC(C)CC(C)C4)sc3nc12 (stereo not drawn),7.15
21,O=C(CN1C(=O)C(=O)N(Cc2ccccc2)C1=O)Nc1ccc(OC(F)F)cc1,-0.804
22,Cc1cc(=O)[nH]c(NCc2ccccc2)n1,5.65
23,CN1C(=O)c2ccc(NC(=O)C3CC3)cc2C1=O,6.21

row,SMILES,"hERG current change (%, negative = inhibition) at 10uM [%]"
1,Nc1nonc1NC(=O)NN=C1CCCCC1,2.13
2,Cc1[nH]c2ccccc2c1/C=N/NC(=O)CCC(=O)NCc1ccccc1,10.9
3,COc1ccc2[nH]c3c(N4CC(C)OC(C)C4)ncnc3c2c1 (stereo not drawn),2.56
4,COc1cc2cc(C(=O)N/N=C/c3ccc(F)cc3)[nH]c2cc1OC,-3.74
5,O=C(NCc1cc(C(F)(F)F)cc(C(F)(F)F)c1)C1CC(c2ccc(C(F)(F)F)cc2)=NO1 (stereo not drawn),23.2
6,Cn1cc(SCC(N)=O)c2ccccc21,1.23
7,COc1cccc(C(=O)CN2CCN(S(=O)(=O)c3ccc(Br)cc3)CC2)c1,-6.53
8,O=C(Nc1ccccc1F)c1ccn[nH]1,21.6
9,Cc1ccc(OC(=O)c2ccc(Br)o2)cc1,2.43
10,O=C(O)c1ccc(N2C(=O)c3ccc(C(=O)c4cccc([N+](=O)[O-])c4)cc3C2=O)cc1,3.19
11,CCOC(=O)c1cnc2c(OC)cccc2c1N1CCN(c2ccccn2)CC1,-44.5
12,Cc1ccc(-n2c(-c3ccncc3)n[nH]c2=S)cc1,19.1
13,COc1cc2c(cc1OC)C(C)N(C(=O)c1cc3c(=O)oc4ccc(C)cc4c3s1)CC2 (stereo not drawn),13.4
14,COC(=O)Nc1nn(-c2ccc(Cl)cc2)c(=O)c(C#N)c1C,-25.3
15,COc1cccc(/C=N/NC(=S)Nc2cccc(S(=O)(=O)N(C)C)c2)c1,17.7
16,O=C1CC(N2CCN(Cc3ccccc3)CC2)C(=O)N1 (stereo not drawn),15.5
17,Cc1ccc(S(=O)(=O)/N=C(/Nc2nc(C)cc(C)n2)N2CCOCC2)cc1,15.1
18,O=C(CSCc1ccc(F)cc1)Nc1ccccc1,0.958
19,CC(=O)c1cn(CC(=O)Nc2ccccc2)c2ccccc12,3.11
20,O=C(Cc1c(O)c2ccccc2[nH]c1=O)OC1CCCCC1,15.7
21,O=c1c2ccccc2nc(/C=C/c2ccc(O)cc2)n1-c1ccc(O)cc1,1.37
